Screen size: about 310,000 compounds; about 14,000 (4.5%) showed an effect of 50% or more. The effect is printed as a negative number. The list shows a part of the results.
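Also: peak tail current of the secondary pulse compared with the same well before compound.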

Chain of human ether-à-go-go-related gene (hERG) potassium channel (Q12809 whole entry, looked up): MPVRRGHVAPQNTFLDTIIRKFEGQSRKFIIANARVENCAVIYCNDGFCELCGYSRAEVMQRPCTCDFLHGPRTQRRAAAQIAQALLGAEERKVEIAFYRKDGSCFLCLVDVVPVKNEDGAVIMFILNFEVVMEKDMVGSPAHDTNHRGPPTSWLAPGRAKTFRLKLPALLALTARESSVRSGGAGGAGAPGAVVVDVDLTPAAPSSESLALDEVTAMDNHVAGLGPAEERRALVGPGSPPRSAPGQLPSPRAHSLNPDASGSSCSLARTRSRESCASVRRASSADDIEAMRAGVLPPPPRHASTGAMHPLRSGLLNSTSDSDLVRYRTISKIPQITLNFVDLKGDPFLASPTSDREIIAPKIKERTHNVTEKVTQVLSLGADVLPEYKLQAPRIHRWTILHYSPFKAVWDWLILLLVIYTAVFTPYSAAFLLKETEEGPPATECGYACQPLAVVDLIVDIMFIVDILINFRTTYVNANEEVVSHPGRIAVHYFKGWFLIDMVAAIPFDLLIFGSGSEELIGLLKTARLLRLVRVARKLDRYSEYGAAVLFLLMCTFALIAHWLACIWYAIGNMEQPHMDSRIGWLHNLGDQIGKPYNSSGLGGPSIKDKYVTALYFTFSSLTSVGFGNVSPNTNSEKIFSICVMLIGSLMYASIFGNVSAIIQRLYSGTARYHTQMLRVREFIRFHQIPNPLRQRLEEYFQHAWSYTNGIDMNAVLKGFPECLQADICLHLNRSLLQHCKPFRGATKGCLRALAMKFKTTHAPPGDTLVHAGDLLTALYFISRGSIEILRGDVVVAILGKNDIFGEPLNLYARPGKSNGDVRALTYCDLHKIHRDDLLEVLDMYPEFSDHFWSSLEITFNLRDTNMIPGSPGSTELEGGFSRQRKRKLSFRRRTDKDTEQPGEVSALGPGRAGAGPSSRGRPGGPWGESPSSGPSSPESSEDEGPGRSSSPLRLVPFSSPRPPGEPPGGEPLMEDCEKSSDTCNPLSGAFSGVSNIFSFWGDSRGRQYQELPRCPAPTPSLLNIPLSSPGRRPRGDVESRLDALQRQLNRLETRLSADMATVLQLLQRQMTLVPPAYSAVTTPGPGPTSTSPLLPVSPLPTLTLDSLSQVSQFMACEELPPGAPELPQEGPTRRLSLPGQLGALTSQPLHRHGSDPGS

The assay concerns the target human ether-à-go-go-related gene (hERG) potassium channel (human, UniProt Q12809). Put plainly: primary screen, population patch clamp on CHO cells stably expressing hERG.
Turning to `Cc1cccn2c(=O)c3cc(C(=O)NCC(C)C)sc3nc12`, the “hERG current change (%, negative = inhibition) at 10uM” value is on record as -3.21%.
The value for `Cc1ccc(C(=O)N/N=C\c2ccc3c(c2)OCO3)cn1` was -22.5%; that for `COc1cc(C=Nc2c(C)cc(C)cc2C)ccc1OC(C)=O` was 10.6%; that for `Cc1nn(CC(=O)NN)c(C)c1Br` was 14.6%.
As for `O=C(O)c1cccc2nc3ccccc3nc12`, the “hERG current change (%, negative = inhibition) at 10uM” value is reported as -7.69%.
Then `CCCNS(=O)(=O)c1ccc(OCC(=O)N2CCN(C)CC2)cc1`, with -0.85%; and `O=c1c2ccccc2nc(/C=C/c2cccc(Br)c2)n1CCCO`, with 9.28%; and `COc1ccccc1-c1noc(CCCC(=O)N2CCOCC2)n1`, with -1.97%.
Then `CCOc1ccc(C(C)=O)cc1Cc1c(O)nc(N)[nH]c1=O`, with 5.42%; and `Cc1ccc(C(=O)n2cc(CCN3CCS(=O)(=O)CC3)c3ccccc32)cc1`, with -6.29%; and `Cc1ccc(OCCCCNC(C)(C)C)c([N+](=O)[O-])c1.O=C(O)C(=O)O`, with -4.42%.
As for `O=C1C2C3c4ccccc4C(c4ccccc43)[C@@H]2C(=O)N1c1cccnc1` (stereo partly drawn), the “hERG current change (%, negative = inhibition) at 10uM” value is listed as 31.7%.
Then `COc1ccc(S(=O)(=O)N(C)CC(=O)Nc2ccc(C(N)=O)cc2)cc1OC`, with 25.9%; and `Cc1ccc(C(=O)NC(C)C2CCCO2)o1` (stereo not drawn), with 6.72%.
Then `Cn1cnnc1SCC(=O)Nc1cc(S(=O)(=O)N2CCCCCC2)ccc1Cl`, with -17.8%; and `COc1ccc(NC(C)C(=O)N2CCN(Cc3ccccc3)CC2)cc1` (stereo not drawn), with 24%.
Then `Cc1cccn2c(=O)c3cc(C(=O)NC4CCCC4)sc3nc12`, with -22.8%.
For `O=C(NCCCCc1ccccc1)C12CN(Cc3ccccc3)CC1C(c1cccc([N+](=O)[O-])c1)=NO2` (stereo not drawn), the “hERG current change (%, negative = inhibition) at 10uM” value is -6.27%.
On to `COC(=O)c1cc(Br)c(=O)n(-c2ccccc2OC)c1`, for which the “hERG current change (%, negative = inhibition) at 10uM” value turned out to be 6.23%.
The value for `Cc1ccc(-n2c(=O)c3ccc(C(=O)NCc4ccco4)cc3n(Cc3ccccc3C#N)c2=O)cc1` was 24.1%.
Then `COc1ccc(OC)c(/C=C2\SC(=S)N(C(C(=O)O)c3ccccc3)C2=O)c1` (stereo not drawn), with 6.24%; and `O=C(c1cc(Cl)c(=O)n(Cc2ccc(Cl)cc2)c1)N1CCOCC1`, with -26.6%.
The value for `C=CCn1c2ccccc2c2nnc(SCC(=O)OCN3C(=O)c4ccccc4C3=O)nc21` was 0.0991%; that for `COC(=O)c1cc2sccc2n1CC(=O)Nc1cccc(SC)c1` was 16.3%; that for `Cc1cccc(NS(=O)(=O)c2cccc(C(=O)N3CCCC3)c2)c1` was 4.7%.
Consider `O=C1c2cc(N3CCCC3)c([N+](=O)[O-])cc2C(=O)N1c1ccccc1`, for which the “hERG current change (%, negative = inhibition) at 10uM” value amounted to 4.3%.
Then `COc1ccccc1/C=C/C(=O)Nc1cccc(S(=O)(=O)N2CCOCC2)c1`, with -16.1%.
The value for `COc1ccc(N2CC(C(=O)N3CCCC(C)C3)CC2=O)cc1` (stereo not drawn) was -8.61%.
The value for `O=C(Cn1c2ccc(F)cc2c2nc3n(c(=O)c21)CCS3)Nc1ccccc1F` was 10.3%.
`CCCCCN1N=C(C)CC1=O`: the “hERG current change (%, negative = inhibition) at 10uM” value was 3.59%.
Then `Cc1nn(C(C)C(=O)Nc2sc3c(c2C#N)CCCC3)c(C)c1[N+](=O)[O-]` (stereo not drawn), with 12.1%; and `COc1ccccc1-c1cc(C(=O)NN)[nH]n1`, with 8.53%; and `O=c1c2c3nc4ccccc4nc3n(/N=C/c3ccccn3)c2ncn1-c1ccccc1`, with 19.8%.
Then `CN=C1SC(C(=O)Nc2ccccc2Cl)CC(=O)N1c1ccc(OC(F)(F)Cl)cc1` (stereo not drawn), with 20.8%; and `CC(=O)Nc1ccc(S(=O)(=O)NCCC(=O)NCCOc2ccccc2)cc1`, with -5.6%.
The value for `Cc1ccc(CNC(=O)C(N=C2NS(=O)(=O)c3ccccc32)C(C)C)cc1` (stereo not drawn) was 5.17%; that for `COc1cnc(-c2cccc(C(F)(F)F)c2)[nH]c1=O` was 9.36%.
For `O=C(CNC(=O)c1cccs1)NCC(=O)OCc1ccc(F)cc1`, the “hERG current change (%, negative = inhibition) at 10uM” value is -13.1%.
On to `O=C(NCCC1=CCCCC1)C1CCN(C(=O)Nc2ccccc2)CC1`, for which the “hERG current change (%, negative = inhibition) at 10uM” value was 7.6%.
The value for `Cc1ccc(/C=C/C(=O)c2c(C)cc(C)[nH]c2=O)cc1` was -5.74%.
As to `Cc1ccc2c(c1)c1ncnc(N3CCOCC3)c1n2C`, the “hERG current change (%, negative = inhibition) at 10uM” value is -18.5%.
Then `Cc1ccc(CCNC(=O)CCS(=O)(=O)Cc2ccc(C)cc2)cc1`, with -0.289%; and `COc1cc(C(=S)N2CCOCC2)ccc1OC(=O)c1ccccc1C`, with 5.33%.
In the case of `CCc1ccccc1S(=O)(=O)Cc1ccc(C(=O)N2CCN(c3ccccn3)CC2)o1`, the “hERG current change (%, negative = inhibition) at 10uM” value is on record as -45.5%.
Turning to `COc1cc2c(C(=O)OCCN(C)C)c(CSc3ccccc3)n(C)c2cc1Br`, the “hERG current change (%, negative = inhibition) at 10uM” value was found to be 5.67%.
As for `CC(C)c1nnc(NC(=O)c2cccc(NC(=O)C(F)(F)F)c2)s1`, the “hERG current change (%, negative = inhibition) at 10uM” value is on record as -2.44%.
Then `Cc1c(OC(C)C(=O)NCCCN2CCOCC2)ccc2c1oc(=O)c1ccccc12` (stereo not drawn), with 6.19%; and `CCn1ccc(C(=O)Nc2sc3c(c2C(=O)OC)CCC3)n1`, with 16%.
Then `O=C(Nc1ccccc1N1CCN(C(=O)c2ccccc2)CC1)c1cc(Br)ccc1Cl`, with -55.6%; and `CCOc1ccc(C(=S)NC2CCCCC2)cc1`, with -18%; and `COc1cc(-c2noc(-c3cccc(Cl)c3)n2)cc(OC)c1OC`, with -1.63%.
Then `C/C(=N\NC(=O)C1(C)CC1(Br)Br)c1ccc([N+](=O)[O-])cc1` (stereo not drawn), with 11%; and `CC(C)Cc1nc2ccc(N)cc2[nH]1.Cl`, with -3.89%.
On to `CC(=O)Nc1ccc(OCC(O)Cn2c(C)nc3ccccc32)cc1` (stereo not drawn), for which the “hERG current change (%, negative = inhibition) at 10uM” value is reported as 3.96%.
Consider `CCn1c(Cc2ccccc2)nnc1SCc1ccc([N+](=O)[O-])cc1`, for which the “hERG current change (%, negative = inhibition) at 10uM” value is -57.1%.
With `CCOC(=O)c1ccc(NC(=S)N(Cc2cccnc2)Cc2ccco2)cc1`, the “hERG current change (%, negative = inhibition) at 10uM” value is given as -53.2%.
The value for `CCOc1ccc(NC(=S)NCCN2CCN(Cc3ccccc3)CC2)cc1` was -62.3%.

The record behind these values is publication PMC4336329 (PLoS ONE, 2015).
